# Measurements reported in PubChem BioAssay AID624417 (National Center for Advancing Translational Sciences (NCATS), 2012).
# Screen size: about 410,000 compounds; about 6,400 (1.6%) were called active. This list was built around the results that the source calls inconclusive (neither active nor inactive); the mix of calls is not that of the screen. Calls come from the whole dose curve; as a rule, active = well fitted inhibition curve with a large enough effect; inconclusive = small, poorly fitted or top-dose-only effect; inactive = no such curve, though single readings can be large or run the other way. Potencies of inconclusive entries are left out as doubtful fits.
# Target: Glucagon-like peptide 1 receptor (Homo sapiens) (UniProt P43220)
# Sequence of UniProt P43220 (P43220 whole entry, looked up): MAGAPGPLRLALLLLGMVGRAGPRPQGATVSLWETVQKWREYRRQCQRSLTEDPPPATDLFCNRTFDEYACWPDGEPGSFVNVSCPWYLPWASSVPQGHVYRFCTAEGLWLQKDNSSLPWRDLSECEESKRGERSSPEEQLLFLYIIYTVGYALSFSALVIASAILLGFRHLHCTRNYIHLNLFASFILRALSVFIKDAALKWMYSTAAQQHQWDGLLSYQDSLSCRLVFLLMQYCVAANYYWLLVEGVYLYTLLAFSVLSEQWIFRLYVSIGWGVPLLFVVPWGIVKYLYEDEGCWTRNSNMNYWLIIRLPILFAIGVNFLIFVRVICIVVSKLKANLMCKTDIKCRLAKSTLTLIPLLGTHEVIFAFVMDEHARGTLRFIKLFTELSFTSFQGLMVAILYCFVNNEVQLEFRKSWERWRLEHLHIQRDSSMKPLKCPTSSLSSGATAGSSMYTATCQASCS
# Assay: qHTS of GLP-1 Receptor Inverse Agonists (Inhibition Mode); note: nearly all actives have a fitted effect of over 55% in size
# Details: HEK293 GLP-1R CRE-luciferase, luminescence, 24 h, GLP-1R form is constitutively active; activity change, negative = inhibition: at 38.3 µM (top of the series) unless noted
# How it was run: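 Using stably transfected HEK293 (constitutively active GLP-1R, cAMP-luciferase reporter), compounds were incubated 24 hr and luciferase measured by luminescence.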
# % is set by controls: 0 for no effect and ±100 for the full control effect; potency is the fitted concentration of half-maximal effect; tags give direction and shape of the fitted curve.
Compound,Potency,"activity change, negative = inhibition"
COc1ccc(NC(=O)CSCc2ccc(C)cc2)cc1,"inconclusive [inhibitor, single point]",–
O=C(CSc1nccn1-c1ccccc1)c1ccc(Br)cc1,"inconclusive [inhibitor, partial curve, poor fit]",–
O=C(C(Sc1ccccc1)c1ccc(Br)cc1)N1CCOCC1 (stereo unspecified),"inconclusive [inhibitor, partial curve, poor fit]",–
CCOc1ccc(N(CC(=O)Nc2ccc(OC)cc2)S(C)(=O)=O)cc1,–,inactive: 20.6%
O=C(c1cccs1)N(Cc1ccco1)c1nc(-c2ccc(F)cc2)cs1,"inconclusive [inhibitor, partial curve, poor fit]",–
CC(=O)N1CCc2cc(S(=O)(=O)CCC(=O)O)ccc21,–,inactive: 8.71%
Cc1ccc(NC(=O)CSc2ncnc3ccccc23)cc1S(=O)(=O)N1CCOCC1,"inconclusive [inhibitor, partial curve, poor fit]",–
CCOc1cccc(C(=O)NC(=S)Nc2ccccc2)c1,"inconclusive [inhibitor, single point]",–
C(=C\c1ccccc1)/CN1CCN(C(c2ccccc2)c2nnnn2Cc2ccccc2)CC1 (stereo unspecified),"inconclusive [inhibitor, single point]",–
COC(=O)C1(C(=O)OC)C/C=C\CN(S(=O)(=O)c2ccccc2[N+](=O)[O-])CCC1,–,inactive: 15.5%
CCCCn1nnnc1C(c1ccccc1)N1CCCN(Cc2ccc(F)cc2)CC1 (stereo unspecified),"inconclusive [inhibitor, partial curve, poor fit]",–
O=C(NCC(c1ccco1)N1CCc2ccccc2C1)C(=O)Nc1cc(F)ccc1F (stereo unspecified),"inconclusive [inhibitor, partial curve, poor fit]",–
CSc1ccccc1NC(=O)CN1CCCCC1,"inconclusive [inhibitor, partial curve, poor fit]",–
O=C(CSc1nnc2scc(-c3ccccc3)n12)N1CCN(Cc2ccccc2)CC1,–,inactive: 1.8%
CC(NCCC(Cc1ccccc1)c1ccco1)c1ccccc1 (stereo unspecified),"inconclusive [inhibitor, single point]",–
O=C(c1ccccc1)C(Nc1ccccn1)c1ccccc1 (stereo unspecified),"inconclusive [inhibitor, partial curve, poor fit]",–
Cc1cc(C(=O)N/N=C/c2ccc(N(C)C)cc2)c2ccccc2n1,"inconclusive [inhibitor, single point]",–
CC(C)c1ccc(CNc2nc(NCC3CC3)nc3ccsc23)cc1,"inconclusive [inhibitor, single point]",–
CCN(CC)S(=O)(=O)c1ccc(N2CCOCC2)c(NS(=O)(=O)c2cc(C(C)(C)C)ccc2C)c1,"inconclusive [inhibitor, partial curve, poor fit]",–
Cc1[nH]c2ccc(F)cc2c1CCN(Cc1cccnc1)C(=S)Nc1ccc(F)cc1,"inconclusive [inhibitor, partial curve, poor fit]",–
CCOc1ccc(NC(=O)Nc2cccc(C(=O)O)c2)cc1,"inconclusive [inhibitor, full curve, poor fit]",–

Compound,Potency,"activity change, negative = inhibition"
CCCCNC(=S)Nc1ccc2nc(N3CCN(CC)CC3)cc(C)c2c1,"inconclusive [inhibitor, full curve, poor fit]",–
O=C(NCc1ccccc1)c1ccc(CSc2nc3cccnc3n2Cc2ccccc2)cc1,"inconclusive [inhibitor, single point]",–
O=S(=O)(Nc1ccc(-n2cccc2)cc1)c1ccccc1,"inconclusive [inhibitor, single point]",–
CCc1cccc(C)c1NC(=O)c1cc2ccccc2o1,"inconclusive [inhibitor, single point]",–
Cc1ccc(C(=O)Nc2cccc(C(O)c3ccccc3)c2)cc1 (stereo unspecified),"inconclusive [inhibitor, partial curve, poor fit]",–
CN1CCC(N(C)S(=O)(=O)c2ccc(NC(=O)COc3cccc(C(F)(F)F)c3)cc2)CC1,active: 11.2 µM,–
COc1cccc(CNc2nc3cc(-c4cnn(Cc5ccccc5)c4)sc3c(=O)n2C)c1,"inconclusive [inhibitor, single point]",–
Cc1ccc(NC(=O)OC(C)CNC(=O)Oc2cccc(C)c2)cc1 (stereo unspecified),–,inactive: -22.1%
S=C(Nc1ccccc1)Nc1ccc(Br)cn1,"inconclusive [inhibitor, partial curve, poor fit]",–
Cc1ccc(Nc2c3c(nc4ncnn24)CC(C)CC3)cc1 (stereo unspecified),–,inactive: -22.4%
CCOc1ccc(N(CC(=O)NCc2ccccc2)C(=O)Cn2nnc(-c3ccc(C)o3)n2)cc1,"inconclusive [inhibitor, partial curve, poor fit]",–
O=S(=O)(Cc1ccccc1Cl)CC(O)COc1ccccc1Cl (stereo unspecified),"inconclusive [inhibitor, partial curve, poor fit]",–
COc1cccc(NC(=O)NC2CCCCCCC2)c1,"inconclusive [inhibitor, single point]",–
O=C(CN1CCN(Cc2ccccc2)CC1)NCc1ccc(Cl)cc1,"inconclusive [inhibitor, full curve, poor fit]",–
Cc1ccc(C(C)C)c(OCc2n[nH]c(=S)o2)c1,"inconclusive [inhibitor, partial curve, poor fit]",–
CCn1c2ccccc2c2cc(NC(=O)C(=O)N3CCOCC3)ccc21,"inconclusive [inhibitor, single point]",–
CCOc1ccc2[nH]c3c(NCCC(C)C)ncnc3c2c1,"inconclusive [inhibitor, partial curve, poor fit]",–
Cc1cc(C(=O)COc2cccc3cccnc23)c(C)n1C,"inconclusive [inhibitor, single point]",–
O=C(NCCNC(=O)c1ccccn1)c1ccccc1,–,inactive: -1.49%
CCCCNC(=S)N/N=C/c1ccccc1F,"inconclusive [inhibitor, partial curve, poor fit]",–
